Data from PubChem BioAssay AID624202 (National Center for Advancing Translational Sciences (NCATS), 2012).
Screen size: about 380,000 compounds; about 4,000 (1.1%) were called active. Inconclusive means that the source gave no clear call. Such entries were picked first, then a sample of the others. Calls come from the whole dose curve; as a rule, active = well fitted activation curve with a large enough effect; inconclusive = small, poorly fitted or top-dose-only effect; inactive = no such curve, though single readings can be large or run the other way. Potencies beside an inconclusive call are fits to weak or partial responses and may not hold up.

Experiment: qHTS Assay to Identify Small Molecule Activators of BRCA1 Expression; note: nearly all actives have a fitted effect of over 80% in size
Conditions: MCF7-BRCA1-FFLuc reporter, luminescence, 48 h; activation: at 46.1 µM (top of the series), scaled: vehicle 0%, 10 µM genistein 100% unless noted
Outline: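 Cells: MCF7-BRCA1-FFLuc, 2000/well. Exposure: 48 h, 37 °C, 5% CO2. Read: luminescence, 15 min post-substrate. Controls: genistein 10 microM (maximal activation), DMSO (neutral).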
Potency is the fitted concentration of half-maximal effect; tags give direction and shape of the fitted curve.

| SMILES | Potency | activation |
| --- | --- | --- |
| C=CCn1c(C)cc(C(=O)COC(=O)c2ccc(N)c([N+](=O)[O-])c2)c1C | inconclusive: 2.51 µM [activator, partial curve, poor fit] | – |
| CCCOc1ccc(Cl)cc1/C=C1/C(=O)ON=C1C | – | inactive: -29% |
| Cc1cccc(C)c1OCc1cc(C(=O)NC2CCC2)no1 | inconclusive: 10 µM [activator, partial curve, poor fit] | – |
| O=c1c(NCc2cccs2)nccn1-c1ccccc1 | inconclusive: 35.5 µM [activator, single point] | – |
| Nc1c(C(=O)c2ccc(Cl)cc2)sc2nc3c(cc12)CCC3 | inconclusive: 2.51 µM [activator, full curve, poor fit] | – |
| Cc1ccc(C(=O)N/N=C(/CC(=O)c2cccs2)C(F)(F)F)cc1 | – | inactive: -50% |
| CCn1c(SCC(=O)NCc2ccco2)nnc1-c1cccc(N(C)C)c1 | – | inactive: -0.717% |
| CC(C)CC(NC(=O)CC12CC3CC(CC(C3)C1)C2)C(=O)NC1=NCCS1 (stereo not given) | – | inactive: 24.8% |
| O=C(CCCCl)Oc1ccc2cc(-c3ccc4ccccc4n3)c(=O)oc2c1 | inconclusive: 4.47 µM [activator, partial curve, poor fit] | – |
| COc1ccc2[nH]cc(CCNC(=S)NCCc3ccccc3)c2c1 | – | inactive: -1.23% |
| O=C(O)/C=C/C(=O)Nc1ccc(-c2ccccc2)cc1 | inconclusive: 17.8 µM [activator, single point] | – |
| CC(=O)Nc1ccc(C(=O)NCCc2ccccc2)cc1 | active: 12.6 µM | – |
| CC(=O)Nc1ccc(S(=O)(=O)NCCc2c[nH]c3ccc(C)cc23)cc1 | – | inactive: -27.8% |
| CCc1ccc(CNC(=O)Cn2nc(-c3ccc(Cl)cc3)ccc2=O)cc1 | – | inactive: 9.5% |
| Cc1cc(C(=O)Nc2ccc(Cl)cc2)on1 | inconclusive: 14.1 µM [activator, single point] | – |
| CC(=O)Nc1nc(-c2ccc3c(c2)OCO3)cs1 | inconclusive: 12.6 µM [activator, partial curve, poor fit] | – |
| O=C(Nc1nc2ccccc2[nH]1)c1ccccc1O | inconclusive: 0.631 µM [activator, full curve, poor fit] | – |
| CN(C)c1ccc(/C=C2\C=Cc3ccccc32)cc1[N+](=O)[O-] | inconclusive: 31.6 µM [activator, single point] | – |
| CCN(CC(=O)Nc1ccccc1C(F)(F)F)C(=O)c1oc2ccc(OC)cc2c1C | inconclusive: 35.5 µM [activator, single point] | – |
| CCN=c1scc(-c2ccco2)n1/N=C/c1ccc(O)cc1 | inconclusive: 7.08 µM [activator, partial curve, poor fit] | – |
| Nc1cc2c3ccccc3ccc2c2ccccc12 | inconclusive: 2 µM [activator, partial curve, poor fit] | – |
| CN(Cc1c(F)cccc1Cl)C(=O)CNC(=O)c1cccs1 | active: 11.2 µM | – |
| CCOc1cccc(C(=O)Nc2ccc3c(c2)OCCO3)c1 | inconclusive: 3.16 µM [activator, partial curve, poor fit] | – |

| SMILES | Potency | activation |
| --- | --- | --- |
| Cc1nnc2sc(COc3ccccc3)nn2c1=O | – | inactive: -3.02% |
| CCOc1ccc(OCc2ccc(C(=O)N(C)c3ccccc3)o2)cc1 | inconclusive: 3.98 µM [activator, partial curve, poor fit] | – |
| CC1CCCN(C(=O)CNC(=O)c2sc3ccccc3c2Cl)C1 (stereo not given) | inconclusive: 11.2 µM [activator, partial curve, poor fit] | – |
| Cc1cccc2nc(CSCc3ccco3)cn12 | inconclusive: 1.58 µM [activator, partial curve, poor fit] | – |
| CCOCCCNC(=O)c1ccc(Br)cc1 | inconclusive: 7.94 µM [activator, partial curve, poor fit] | – |
| CCc1ccc(NC(=S)N2CCCC2)cc1 | inconclusive: 8.91 µM [activator, partial curve, poor fit] | – |
| COc1cc(NC(=O)CSc2nc3ccccc3cc2Cc2ccccc2)cc(OC)c1 | – | inactive: -43.9% |
| O=C(CN1CCCC1)Nc1ccc(-c2nc3cc(NC(=O)CN4CCCC4)ccc3o2)cc1 | inconclusive: 10 µM [activator, partial curve, poor fit] | – |
| CC(C)c1ccc(NC(=O)C2CC3CCC2C3)cc1 (stereo not given) | active: 6.31 µM | – |
| O=C(O)[C@H]1CC=C[C@H]2CCN(Cc3ccc(Cl)c(Cl)c3)C(=O)[C@@H]12 | – | inactive: 15.7% |
| COc1ccc(NC(=O)COC(=O)CCCN2C(=O)c3ccccc3C2=O)cc1Cl | inconclusive: 20 µM [activator, single point] | – |
| COc1ccc(-n2ncc3c(NCc4ccccn4)ncnc32)cc1 | inconclusive: 12.6 µM [activator, partial curve, poor fit] | – |
| CCC(=O)Nc1cccc(-c2ccc(N3CCCCC3)nn2)c1 | inconclusive: 0.631 µM [activator, full curve, poor fit] | – |
| CCOC(=O)c1ccc(N2Cc3ccccc3C2=NC(=O)c2ccncc2)cc1 | inconclusive: 11.2 µM [activator, partial curve, poor fit] | – |
| COc1ccc(N(CC(=O)N2CCc3ccccc32)S(=O)(=O)c2c(C)nn(C)c2C)cc1 | – | inactive: -7.93% |
| CSCc1ccc(C(=O)Nc2cccc(C)c2C)cc1 | active: 11.2 µM | – |
| Cc1ccc2cc(CCNC(=O)c3ccco3)c(=O)[nH]c2c1 | active: 12.6 µM | – |
| Cc1cccn2cc(COc3ccc(-c4ccccc4)cc3)nc12 | inconclusive: 2 µM [activator, full curve, poor fit] | – |
| COc1ccc(Cc2nc(-c3cccs3)no2)cc1 | inconclusive: 14.1 µM [activator, partial curve, poor fit] | – |
| CCOc1ccccc1C(=O)Nc1cccc(-c2ccc(N3CCOCC3)nn2)c1 | inconclusive: 2 µM [activator, full curve, poor fit] | – |
| CC1(C)Oc2ccc(NC(=O)c3ccco3)cc2O1 | inconclusive: 3.55 µM [activator, partial curve, poor fit] | – |
| C=CC(=O)Nc1cccc(Nc2nc(N[C@H]3CC[C@H](N(C)C)CC3)nc3c2ncn3C(C)C)c1 | – | inconclusive: -81.2% [activator] |
